# Laboratory results from PubChem BioAssay AID445 (National Center for Advancing Translational Sciences (NCATS), 2006).
# Screen size: about 110,000 compounds; about 40 (0.04%) were called active. The shares of active, inactive and inconclusive entries below differ from those in the screen. The call rests on the fitted dose curve; in most records, active means well fitted curve in the direction sought with a large enough effect in the signal ratio (not every such curve was filed as active); inconclusive means small, poorly fitted or top-dose-only effect, or a change in a side signal; inactive means flat fitted curve, though single readings scatter; the % refers to the signal ratio. A potency beside an inconclusive call is a rough fit, not a confirmed value.
# Experiment: IkB Signaling;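 on IkBa stabilization activation: 0% = basal untreated cells and 100% = reference inhibitor full response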
# Details: ABC-DLBCL IkBa-CBG/CBR dual luciferase ratio (green luciferase fused to IkBa over red control in OCI-Ly3 lymphoma cells), 4 h; IkBa stabilization activation: at 57.1 µM (top of the series), scaled: untreated 0%, proteasome inhibitor 100% unless noted
# In short: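 In this assay, an IκBα–CBG68 fusion accumulates when IKK-driven degradation is blocked; native CBR normalizes for cell number. OCI-Ly3 cells were treated 4 h with compound and doxycycline, then green and red light read after Chroma-Glo addition.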
# Potency means the concentration at half of the fitted maximal effect.
SMILES,IkBa stabilization activation,Potency
CCN1/C(=C/C(=O)c2ccco2)Sc2ccccc21,inactive: 1.94%,–
COC(=O)c1sccc1S(=O)(=O)N(CC(=O)NCc1ccccc1)c1ccc(C)c(C)c1,inconclusive: 2.85% [signal inhibitor],–
CCOC(=O)c1c(C)c(-c2ccccc2)n(CC(=O)Nc2cccc(F)c2)c1C,inconclusive: -0.309% [signal inhibitor],–
COc1ccc(NC(=O)CSc2nnc3scc(-c4ccc(Cl)cc4)n23)cc1,inconclusive: 2.17% [signal inhibitor],–
CCN(CC)S(=O)(=O)c1cc(C(=O)Nc2ccccc2C(=O)O)ccc1OC,inactive: 3.81%,–
COCCOc1ccc(C(F)(F)F)cc1Nc1nc2ccccc2o1,inconclusive: 17.3% [signal inhibitor],–
Cc1ccc(S(=O)(=O)N(CC(=O)N2CCc3ccccc3C2)c2ccc(C)c(C)c2)cc1,inconclusive: 7.7% [signal inhibitor],–
CCOC(=O)c1ccccc1NC(=O)N1CCCN(S(=O)(=O)c2ccc3c(ccn3CC)c2)CC1,inconclusive: 0.973% [signal inhibitor],–
Cc1cccc(-c2nc(CCNC(=O)c3ccccc3Br)cs2)c1,inactive: 0.0839%,–
CCOc1ccc(-c2nc3c(C#N)c[nH]n3c2NC2CCCCC2)cc1,inconclusive: 0.699% [signal inhibitor],–
O=C(Nc1cc(F)ccc1F)c1ccc2c(c1)nnn2C1CCCC1,inactive: -2.1%,–
CCCC(=O)Nc1cc(C(=O)NCc2ccc(OC)cc2)ccc1S(=O)(=O)c1ccc(Cl)cc1,inconclusive: 0.255% [signal inhibitor],–
Cc1nn(CC(=O)NCc2ccccc2Cl)c(=O)c2cccn12,inactive: -2.01%,–
Cc1cc(C)n(-c2nnc(Nc3ccc(C(C)C)cc3)c3ccccc23)n1,inconclusive: -0.729% [signal inhibitor],–
COc1cccc(C(=O)NC(=O)Nc2ccc(-n3nc(C(F)(F)F)cc3C(F)(F)F)cc2)c1,inactive: -1.87%,–
CC(=O)c1ccc(NC(=O)C2=CC(c3cccs3)=NS(=O)(=O)N2C)cc1,inconclusive: -0.325% [signal inhibitor],–
COc1cc(Nc2nc(SCc3cccc(Cl)c3)nc3ccccc23)cc(OC)c1,inconclusive: -0.687% [signal inhibitor],–
Cc1nc2c(c(C)nn2-c2ccccc2)c(C)c1CCC(=O)Nc1ccc(F)cc1,inconclusive: 3.52% [signal inhibitor],–
Nc1nc(N)c2nn(-c3ccc(C(=O)O)cc3)nc2n1,"inactive: 0.905% [at 11.4 µM, scaled: untreated 0%, proteasome inhibitor 100%]",–
Cc1ccc2nc(-c3ccc(NC(=O)C(F)(F)F)cc3)sc2c1,inactive: 2.83%,–
Cc1ccc(Cl)cc1NC(=O)C(NS(=O)(=O)c1cccc2nsnc12)c1ccccc1 (stereo unspecified),inactive: 1.68%,–
Cc1[nH]c2ccccc2c1C(O)CN1CCN(c2cccc(C(F)(F)F)c2)CC1 (stereo unspecified),inconclusive: -2.57% [signal inhibitor],–
Cc1cc(C(=O)CN2C(=O)NC3(CCCCC3)C2=O)c(C)n1Cc1ccc2c(c1)OCO2,inconclusive: 7.79% [signal inhibitor],–
CCCCCCNC(=O)C(C(=O)OCC)C1CCCCC1 (stereo unspecified),inactive: -1.62%,–

SMILES,IkBa stabilization activation,Potency
Cc1nc2nc(NC(=O)c3ccc(F)cc3)[nH]n2c(=O)c1Cc1ccccc1,inconclusive: 4.84% [signal inhibitor],–
O=C(NCc1ccccc1F)C1CCN(Cc2cc3ccccc3n2Cc2cccc(Cl)c2)CC1,inconclusive: 1.33% [signal inhibitor],–
Cc1c(C(=O)OC2CCCCC2)[nH]c2c1C(=O)CC(c1ccccc1Cl)C2 (stereo unspecified),–,inconclusive: 7.94 µM [signal inhibitor]
Cc1ccccc1NC(=O)Nc1ccc2nc(N3CCN(C)CC3)cc(C)c2c1,inconclusive: -0.252% [signal inhibitor],–
CC(=O)c1cc(-c2ccc(F)cc2)n(CC(=O)NC(C)c2ccccc2)c1C (stereo unspecified),inactive: -0.51%,–
Cn1c(=O)oc2cc(S(=O)(=O)CCC(=O)NCCc3ccccc3)ccc21,inconclusive: 0.0111% [signal inhibitor],–
Cc1cccn2c(=O)c(/C=C(\C#N)c3nc4ccccc4s3)c(Oc3ccc(Br)cc3)nc12,–,"inconclusive: 31.6 µM [rising, partial curve]"
CCOCCc1nnc(NC(=O)C(=O)c2cc(C)n(-c3cccc(C)c3)c2C)s1,inconclusive: 2.09% [signal inhibitor],–
Cc1ccc(-c2noc(CNC(=O)COc3cc(C)c(Br)c(C)c3)n2)cc1,inconclusive: 0.391% [signal inhibitor],–
O=C(NC1CCCCC1)c1ccc2c(c1)sc1nc(-c3ccc(F)cc3)cn12,inconclusive: 0.215% [signal inhibitor],–
O=C(Nc1ccc2c(c1)OCCO2)NC1CCCCC1,–,"inconclusive: 10 µM [signal inhibitor, partial curve]"
Cc1ccc(-n2nc(C(=O)N3CCN(c4ccc(F)cc4)CC3)c(=O)n(C)c2=O)cc1,inconclusive: 0.165% [signal inhibitor],–
OC(COc1cccc2ccccc12)CN1CCN(c2ccccn2)CC1 (stereo unspecified),inconclusive: 4.66% [signal inhibitor],–
COc1ccc2nc(NC(=O)c3nc(S(=O)(=O)Cc4ccccc4F)ncc3Cl)sc2c1,inactive: -0.471%,–
Cc1ccc(NC(=O)CSc2nc3ccc(Br)cc3[nH]2)c(C)c1,inconclusive: -6.84% [signal inhibitor],–
NCc1ccc(-c2nc3ccccc3o2)cc1,inactive: 0.464%,–
CC1CCN(C(=O)CSc2c3c(nc4ccc(Cl)cc24)CCCC3)CC1,inconclusive: 0.553% [signal inhibitor],–
CC1=C(c2ccc(C(C)C)cc2)S(=O)(=O)NC1=NCc1ccccc1C,inactive: -1.71%,–
CCOc1ccc(N(Cc2ccccc2)C(=O)c2nc(SCC)ncc2Cl)cc1,inconclusive: 0.44% [signal inhibitor],–
Cc1cccc(NC(=O)CSc2nc3ccccc3nc2N2CCC(C)CC2)c1,inconclusive: 3.81% [signal inhibitor],–
O=C(COc1ccc(F)cc1)Nc1nnc(S(=O)(=O)N2CCc3ccccc32)s1,inactive: 1.49%,–
COc1ccc(S(=O)(=O)N(CC(=O)Nc2ccc(F)c(Cl)c2)c2ccc(C)cc2)cc1OC,inconclusive: 7.38% [signal inhibitor],–
O=C(Nc1cccc(Cn2cccn2)c1)c1cc2c(s1)CCCC2,inconclusive: -4.04% [signal inhibitor],–
Cc1ccc(Nc2cc(C)nc(-n3nc(C)cc3C)n2)cc1,inactive: -1.98%,–

SMILES,IkBa stabilization activation,Potency
O=C(c1cnn2c1NC(c1ccco1)CC2C(F)(F)F)N1CCN(c2cccc(Cl)c2)CC1 (stereo unspecified),inconclusive: 1.81% [signal inhibitor],–
CCOc1ccc(N(CC(=O)Nc2ccc3c(c2)OCCO3)S(=O)(=O)c2c(C)noc2C)cc1,inconclusive: 6.51% [signal inhibitor],–
COc1cc(NC(=O)CSc2nc(-c3cccs3)cc(C(F)(F)F)n2)cc(OC)c1OC,inactive: 5.47%,–
Cn1cnc2c(NCc3ccccc3)nc(NCCO)nc21,inconclusive: 0.897% [signal inhibitor],–
CN(C)c1ccc(NC(=O)Nc2cccc(Cl)c2)cc1,inactive: 1.13%,–
Cc1cccc(CSc2nc3c(c(=O)[nH]2)CCC3)c1,inconclusive: -1.57% [signal inhibitor],–
COc1ccc(S(=O)(=O)NCc2cccn2Cc2cccc(C)c2)cc1Cl,inconclusive: 2.22% [signal inhibitor],–
COc1cccc(C(=O)Nc2ccc(NC(=O)C3CC3)cn2)c1,inconclusive: 5.21% [signal inhibitor],–
CCOC(=O)c1ccccc1NC(=O)CSc1nc2ccccc2n1CC(=O)N1CCCC1,inactive: -0.33%,–
CCS(=O)(=O)N1CCc2cc(C(=O)N3CCN(c4ccc(OC)cc4)CC3)ccc21,inconclusive: 3.19% [signal inhibitor],–
COc1ccc(OC)c(S(=O)(=O)N2Cc3ccccc3CC2C(=O)Nc2ccc(C)cc2C)c1 (stereo unspecified),inconclusive: 0.578% [signal inhibitor],–
COc1ccc(-c2nc(SCC(=O)Nc3ccccc3)c(-c3ccc(F)cc3)[nH]2)cc1OC,inconclusive: 2.13% [signal inhibitor],–
COC(=O)C1=C(C)NC(C)=C(C(=O)OC)C1c1ccc(N(C)C)cc1,inactive: 1.71%,–
CCc1cccc(NC(=O)Cn2c(=O)n(-c3ccccc3C)c(=O)c3c2c2cc(C)ccc2n3C)c1,inconclusive: 3.18% [signal inhibitor],–
Cc1ccc(Cl)cc1-n1c(CCC(=O)O)ccc1-c1cccs1,inconclusive: 6.58% [signal inhibitor],–
Cc1ccccc1CN1CCc2nc(N3CCN(c4ncccn4)CC3)ncc2C1,inconclusive: 2.49% [signal inhibitor],–
CCCCc1nn2c(=O)cc(COC(=O)c3cccc(NC(=O)c4cccc(Cl)c4)c3)nc2s1,inconclusive: 10.5% [signal inhibitor],–
COc1ccc(CCCc2nnc(SCC(=O)Nc3cccc(C)c3)o2)cc1C,inconclusive: 14.1% [signal inhibitor],–
CC(=O)N1CCC[C@@]2(CCN(c3ccncc3)C2)C1,"inactive: 0.434% [at 11.4 µM, scaled: untreated 0%, proteasome inhibitor 100%]",–
CCSc1nc2c(cnn2-c2ccc(C)cc2)c(=O)[nH]1,inactive: -2.78%,–
CCOc1ccccc1C(=O)Oc1c(S(=O)(=O)c2ccc(C)cc2)c(C)nn1-c1ccccc1,inconclusive: -5.81% [signal inhibitor],–
CCCCN(C)CCCNC(=O)Cn1ncc2c3ccccc3n(Cc3cccc(Cl)c3)c2c1=O,inactive: 0.209%,–
COc1ccc(N(C)C(=O)c2nn(-c3ccc(C)cc3)c(=O)n(C)c2=O)c(OC)c1,inconclusive: -0.355% [signal inhibitor],–
